This is one part of the list. The main result of the screen is listed elsewhere. These columns were measured beside it and carry no call.

Assay in all cases: Primary Screen for Target Class Profiling of Small Molecule Inhibitors of Methyltransferases
Assay [1] has as its target Glycine N-methyltransferase (Homo sapiens) (UniProt Q14749). Conditions: purified enzyme, MTase-Glo SAH luminescence; measured here: GNMT inhibition; at 40 µM; stronger effect = lower value. Put shortly: (§1)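 Each enzyme was reacted with SAM and its substrate, with compounds tested once at 40 uM; SAH formed was read by MTase-Glo luminescence.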
Assay [2] deals with Guanidinoacetate N-methyltransferase (Homo sapiens) (UniProt Q14353). Conditions: purified enzyme, MTase-Glo SAH luminescence; measured here: GAMT inhibition; at 40 µM; stronger effect = lower value. The method, boiled down: as §1
Assay [3] deals with Histamine N-methyltransferase (Homo sapiens) (UniProt P50135). Conditions: purified enzyme, MTase-Glo SAH luminescence; measured here: HNMT inhibition; at 40 µM; stronger effect = lower value. Put shortly: as §1
In assay [4] the target is Nicotinamide N-methyltransferase (Homo sapiens) (UniProt P40261). The settings on record: purified enzyme, MTase-Glo SAH luminescence; measured here: NNMT inhibition; at 40 µM; stronger effect = lower value. Put shortly: as §1
Assay [5] has as its target Phenylethanolamine N-methyltransferase (Homo sapiens) (UniProt P11086). The settings on record: purified enzyme, MTase-Glo SAH luminescence; measured here: PNMT inhibition; at 40 µM; stronger effect = lower value. The method, boiled down: as §1
On the % scale 0 is the no-effect control and ±100 the full control effect.

As for `C=C[C@]1(C)C=C2CCC3C(C)(CCC[C@@]3(C)C(=O)O)C2CC1` (stereo partly drawn), the activity change, negative = inhibition is -1.6% in assay [1]; -1.91% in assay [2]; 6.9% in assay [3]; -17.7% in assay [4]; -1.84% in assay [5].
The matching figures for `COCCOc1cnc2ccn([C@H](C)c3nnc4c(F)cc(-c5cnn(C)c5)cn34)c(=O)c2c1`: -3.58%, -4.54%, -1.85%, -15.8% and -7.41%.
As for `Cc1cc(-c2ncc(-c3cccnc3)cc2/C=C/c2ccccc2)cnc1-c1cccnc1`, the activity change, negative = inhibition was 5.28% in assay [1]; 12.2% in assay [2]; -13.4% in assay [3]; -12.7% in assay [4]; 5.42% in assay [5].
The matching figures for `CCc1cc(Nc2nccc(-c3c(-c4ccc(OC)c(C(=O)Nc5c(F)cccc5F)c4)nc4ccccn34)n2)c(OC)cc1N1CCC(N2CCN(S(C)(=O)=O)CC2)CC1`: -5.31%, -33.1%, -5.78%, -53.4% and -14.8%.
As for `CC(C)CCN1CC[C@@H]2OCC(=O)N(Cc3ccccc3)[C@H]2CC1`, the activity change, negative = inhibition in assay [1] is -6.97%; in assay [2], -3.11%; in assay [3], -7.62%; in assay [4] it was -12.4%; in assay [5], -6.07%.
Turning to `CC(C)CCNC(=O)C1(C)Cn2nc(C(=O)N3CCCC3)cc2C(=O)N1C` (stereo not drawn), the activity change, negative = inhibition in assay [1] amounted to 5.95%; in assay [2], 0%; in assay [3] it was 4.75%; in assay [4], 5.86%; in assay [5], 4.16%.
Take `Cc1cc(CS(=O)(=O)c2ccccc2)cc(OCc2ccc(CN3CCCC3CO)cc2)c1` (stereo not drawn): the activity change, negative = inhibition in assay [1] was 2.11%; in assay [2] it was 8.15%; in assay [3] it was -28.7%; in assay [4] it was -12.1%; in assay [5], -13.9%.
Regarding `Cc1cc(-c2nc(CN3CCC(C(=O)NCCCN4C[C@H](C)C[C@H](C)C4)CC3)co2)ccc1F`, the activity change, negative = inhibition in assay [2] was -14.9%; in assay [4], -20.9%; in assay [5] it was -2.93%.
Consider `CCCSCCCN1C(=O)c2cc3sccc3n2CC1(C)C(=O)NC1CCC(C)CC1` (stereo not drawn), for which the activity change, negative = inhibition in assay [1] was -2.44%; in assay [2], 0%; in assay [3], 0.248%; in assay [4], -3.5%; in assay [5], -3.05%.
Turning to `Fc1cccc(-c2nnn3c2nc(N2CCOCC2)c2cc(Cl)ccc23)c1`, the activity change, negative = inhibition was -5.13% in assay [1]; -5.2% in assay [2]; -3.1% in assay [3]; -4.98% in assay [4]; -6.98% in assay [5].
For `CCOCCCNC(=O)N1Cc2c(sc3c2CCCC3)-n2cccc2C1c1ccc(OC)cc1` (stereo not drawn), the activity change, negative = inhibition in assay [1] is -4.47%; in assay [2], 0.682%; in assay [3], 2.35%; in assay [4] it was -6.92%; in assay [5], 1.56%.
Regarding `O=C(Nc1ccc(F)c(Cl)c1)C1=NO[C@@H]2CN(CCc3ccccc3)C[C@H]12`, the activity change, negative = inhibition in assay [1] was -1.73%; in assay [2], -0.325%; in assay [3], -1.88%; in assay [4], -12.8%; in assay [5], -20.1%.
With `c1ccc2c(c1)CCN2c1nccnc1OC1CCNC1` (stereo not drawn), the activity change, negative = inhibition is -4.04% in assay [1]; -1.2% in assay [2]; -16.6% in assay [3]; -9.55% in assay [4]; -3.78% in assay [5].
As for `COc1cc(/C=C/C(=O)O[C@H]2C[C@@H]3C(C(=O)O)=CO[C@@H](O[C@@H]4O[C@H](CO)[C@@H](O)[C@H](O)[C@H]4O)[C@@H]3[C@H]2C)ccc1O`, the activity change, negative = inhibition is 4.49% in assay [1]; 3.42% in assay [2]; -1.62% in assay [3]; -7.85% in assay [4]; 4.68% in assay [5].
For the compound `Cc1nc(Nc2n[nH]c3c2CN(C(=O)NC(CN(C)C)c2ccccc2)C3(C)C)c2sccc2n1` (stereo not drawn), the activity change, negative = inhibition in assay [1] was -3.6%; in assay [2], -2.46%; in assay [3], -51.9%; in assay [4], -33.5%; in assay [5] it was -0.36%.
Take `CC1CCCCN1CCN1C(=O)c2ccc(-c3ccco3)n2CC1(C)C(=O)NC1CCCCC1` (stereo not drawn): the activity change, negative = inhibition in assay [1] is 4.28%; in assay [2] it was 2.4%; in assay [3], 3.3%; in assay [4], 7.13%; in assay [5], -14.1%.
In the case of `CC(C)OC(=O)N1CCC(Oc2ncnc3c2cnn3-c2ccc(S(C)(=O)=O)cc2F)CC1`, the activity change, negative = inhibition in assay [1] was -2.91%; in assay [2], 0.996%; in assay [3], 8.85%; in assay [4], -16.7%; in assay [5], -6%.
Consider `O=C(N[C@H]1C[C@H]2C(=O)NC[C@@H](CCC(=O)N3CCN(c4ccccn4)CC3)N2C1)c1cccs1`, for which the activity change, negative = inhibition in assay [1] is -6.67%; in assay [2], 1.51%; in assay [3], 0.402%; in assay [4] it was -7.14%; in assay [5], -2.26%.
Take `Nc1ccn([C@H]2CC[C@@H](CO)O2)c(=O)n1`: the activity change, negative = inhibition in assay [1] was -0.409%; in assay [2], 11.7%; in assay [3], 3.84%; in assay [4], -4.31%; in assay [5], 3.97%.
Regarding `CC1=CC2(O)/C=C/C(C)(O)CC(O)/C=C/C(=O)OC23C(=O)NC(CC(C)C)C3C1C` (stereo not drawn), the activity change, negative = inhibition in assay [1] is 3.42%; in assay [2], 1.26%; in assay [3] it was 7.26%; in assay [4] it was -8.49%; in assay [5] it was 1.37%.
`CC(NC(=O)CCn1ccc2cc(S(=O)(=O)N3CCCC3)ccc21)c1ccccc1` (stereo not drawn): the activity change, negative = inhibition in assay [1] was 5.99%; in assay [2], 0%; in assay [3], 7.11%; in assay [4], 7.25%; in assay [5], 4.97%.
For `COCCN1Cc2[nH]nc(-c3ccsc3)c2CC1=O`, the activity change, negative = inhibition in assay [1] was -14.7%; in assay [2] it was -8.88%; in assay [3], -5.78%; in assay [4], -20.9%; in assay [5], -10%.
Regarding `COc1cccc(CNC(=O)N2Cc3c(sc4c3CCCC4)-n3cccc3C2c2cccc(OC)c2)c1` (stereo not drawn), the activity change, negative = inhibition in assay [1] is -3.32%; in assay [2], 0%; in assay [3] it was 3.27%; in assay [4], -13.5%; in assay [5], 2.42%.
`CC(=O)Nc1ccc(C2(C(=O)NCc3cccs3)CCCCC2)cc1`: the activity change, negative = inhibition in assay [1] was -0.564%; in assay [2], -1.22%; in assay [3] it was -0.755%; in assay [4] it was -3.49%; in assay [5] it was 7.88%.
Take `Cc1occc(=O)c1O[C@@H]1O[C@H](CO)[C@@H](O)[C@H](O)[C@H]1O`: the activity change, negative = inhibition in assay [1] was 7.35%; in assay [2], 11.4%; in assay [3] it was 10.3%; in assay [4], -0.192%; in assay [5], 9.43%.
Take `COCCN(CCOC)CC[C@@H]1CC[C@H](O)[C@@H](C(=O)NC2CCCCC2)O1`: the activity change, negative = inhibition is -4.39% in assay [1]; -10% in assay [2]; -2.71% in assay [3]; -2.4% in assay [4]; -6.62% in assay [5].
Regarding `N#Cc1cccnc1-c1cccc(C(=O)NCCNC(=O)c2ccccc2)c1`, the activity change, negative = inhibition was -6.8% in assay [1]; -11.3% in assay [2]; -2.42% in assay [3]; -6.28% in assay [4]; -8.33% in assay [5].

(Values after PubChem BioAssay AID1745853 (National Center for Advancing Translational Sciences (NCATS), 2022).)
